# This is one part of the list. Most values come without repeats; read them as rough.
# System: SkMel30
# Experiment: cell count relative to DMSO control; melanoma cells; higher = more viable cells
# Conditions: library dose: low library concentration; 72 h
# 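Further: cell number obtained by counting DAPI-stained nuclei in high-throughput microscope images with image analysis software, screen run in 1,536-well plates.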
row,Structure (SMILES),cell count [%]
1,"CC(C)C[C@H](NC(=O)[C@H](Cc1ccccc1)NC(=O)c1cnccn1)B(O)O [Bortezomib] + O=c1cc(-c2cccc3c2Sc2ccccc2S3)oc(N2CCOCC2)c1 [KU55933] (first compound 0.001 µM, partner dose 1 µM)",76
2,"COc1ccc(C2=N[C@@H](c3ccc(Cl)cc3)[C@@H](c3ccc(Cl)cc3)N2C(=O)N2CCNC(=O)C2)c(OC(C)C)c1 [Nutlin-3] + CN(C)S(=O)(=O)c1ccc2c(c1)/C(=C/c1cc3c([nH]1)CCCC3)C(=O)N2 [SU6656] (first compound 0.1 µM, partner dose 0.4 µM)",105
3,"Cc1cc(Nc2cc(N3CCN(C)CC3)nc(/C=C/c3ccccc3)n2)n[nH]1 + CCc1ccc(CCOc2ccc(CC3SC(=O)NC3=O)cc2)nc1 [pioglitazone] (first compound 0.04 µM, partner dose 2 µM)",98.2
4,"Cn1c(=O)n(-c2ccc(C(C)(C)C#N)cc2)c2c3cc(-c4cnc5ccccc5c4)ccc3ncc21 + O=C(Nc1ccccc1)c1cc([N+](=O)[O-])ccc1Cl [GW9662] (first compound 0.004 µM, partner dose 2 µM)",101
5,"Cc1cn(-c2cc(NC(=O)c3ccc(C)c(Nc4nccc(-c5cccnc5)n4)c3)cc(C(F)(F)F)c2)cn1 [nilotinib] + COc1cc2c(Oc3ccc4[nH]c(C)cc4c3F)ncnc2cc1OCCCN1CCCC1 [cediranib] (first compound 0.2 µM, partner dose 0.4 µM)",85.3
